Reference: PubChem BioAssay AID360 (National Center for Advancing Translational Sciences (NCATS), 2006)
Out of some 48,000 compounds screened, about 550 (1.1%) were called active. Another 4% or so got no clear call; they are omitted. No stated cut-off is given here; in the data, active means potency below about 15 µM; inconclusive means mostly about 16 µM to 33 µM; inactive means weaker than that. The list shows a part of the results.

The compounds below were run against Lysosomal acid glucosylceramidase (Homo sapiens) (UniProt P04062) (assay: Glucocerebrosidase). Details: purified enzyme, resorufin glucoside fluorescence (screen aimed at inhibitors), 20 min; series mostly up to 77 µM.
Summary of the method: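 Wild-type enzyme at 0.2 nM final in 50mM citric acid/KH2PO4, 10mM sodium taurocholate, 0.01% tween-20, pH 5.9, with resorufin beta-D-glucopyranoside at 30 uM final. Compounds titrated, 20 min at RT, red fluorescence read; AC50 from titration.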
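Further: the screen sought inhibitors.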
Potency means the concentration at half of the fitted maximal effect.

Sequence of UniProt P04062 (P04062 whole entry, looked up): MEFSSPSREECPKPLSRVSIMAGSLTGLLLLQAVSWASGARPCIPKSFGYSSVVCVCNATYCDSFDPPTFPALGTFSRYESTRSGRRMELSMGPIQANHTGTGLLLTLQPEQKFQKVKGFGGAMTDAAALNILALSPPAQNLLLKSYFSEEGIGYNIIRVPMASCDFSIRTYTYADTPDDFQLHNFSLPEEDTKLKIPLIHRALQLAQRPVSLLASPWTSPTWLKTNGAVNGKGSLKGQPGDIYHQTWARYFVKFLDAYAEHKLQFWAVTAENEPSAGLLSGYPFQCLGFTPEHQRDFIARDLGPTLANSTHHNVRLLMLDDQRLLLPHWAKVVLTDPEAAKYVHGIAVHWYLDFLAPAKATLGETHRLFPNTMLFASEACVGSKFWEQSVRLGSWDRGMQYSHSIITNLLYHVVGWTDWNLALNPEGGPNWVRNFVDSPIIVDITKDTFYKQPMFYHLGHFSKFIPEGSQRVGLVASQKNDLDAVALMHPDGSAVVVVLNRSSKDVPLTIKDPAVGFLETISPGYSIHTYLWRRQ

Potency, inactive:
COc1ccccc1C1/C(=C(/O)c2ccccc2)C(=O)C(=O)N1CC(C)C (stereo not drawn) > 76.9 µM
O=C(NCc1cccs1)c1cccnc1C(=O)O > 76.9 µM
COC(=O)NCc1ccc(S(=O)(=O)N2CCOCC2)cc1 > 76.9 µM
CCO/C=C/C(=O)N(C)CCC#N > 76.9 µM
c1ccc(N=P(N2CCOCC2)(N2CCOCC2)N2CCOCC2)cc1 > 76.9 µM
CN1CCN(CCC(=O)Nc2cccc(F)c2)CC1 > 76.9 µM
O=c1cc(N2CCc3ccccc32)[nH]c(=O)n1-c1ccccc1 > 76.9 µM
Cc1cccc(-n2c(=O)[nH]c3c(C(N)=O)nc(CC(C)C)nc32)c1 > 76.9 µM
COc1ccc(C(CC(=O)O)NS(=O)(=O)c2ccc(C)cc2)cc1OC (stereo not drawn) > 76.9 µM
Fc1cccc(-c2cc3nc4c(c(N5CCOCC5)n3n2)CCCC4)c1 > 76.9 µM
O=C(O)CSc1nnc(-c2ccc(S(=O)(=O)N3CCCC3)cc2)n1Cc1ccco1 > 76.9 µM
O=C(COC(=O)c1cccc(S(=O)(=O)N2CCOCC2)c1)Nc1ccc2c(c1)OCO2 > 76.9 µM
O=C(Nc1ccc2c(c1)OCO2)C1CCCCN1S(=O)(=O)c1ccc(F)cc1 (stereo not drawn) > 76.9 µM
Cc1ccccc1Nc1nc(N)nc(CN(C)c2ccccc2)n1 > 76.9 µM
CCOC(=O)N1CCN(C(=O)C2CCN(S(=O)(=O)c3cc(Cl)ccc3Cl)CC2)CC1 > 76.9 µM
CC(CC(=O)O)CC(=O)Nc1ccccc1C(=O)O (stereo not drawn) > 76.9 µM
COCC(C)n1c(C)cc(C(=O)CN2C(=O)NC3(CCCCC3C)C2=O)c1C (stereo not drawn) > 76.9 µM
COCCn1c(SCc2ccc(C(=O)OC)o2)nc2ccccc2c1=O > 76.9 µM
O=C(C1CCN(Cc2ccc(F)cc2)CC1)N(CCO)Cc1ccccc1 > 76.9 µM
O=C(c1ccco1)c1cn[nH]c1-c1ccc(Cl)cc1O > 76.9 µM
Cc1ccc(C)c(OCC(O)CN2CCCCC2C)c1 (stereo not drawn) > 76.9 µM
COc1ccc(C2C(C#N)=C(N)Oc3cc(O)ccc32)cc1OC (stereo not drawn) > 76.9 µM
CCOP(=O)(c1ccccc1Cl)C1(O)CCCCC1 (stereo not drawn) > 76.9 µM
CCCOc1nc2c(c(=O)n(C)c(=O)n2C)n1CC > 76.9 µM
Cc1c(CNC(=O)c2cnn3c2NC(c2ccccc2)CC3C(F)(F)F)cnn1C (stereo not drawn) > 76.9 µM
Cc1ccc(C)c(CN2C(=O)C(C)Oc3ccc(C)cc32)c1 (stereo not drawn) > 76.9 µM
Cc1nc2oc3c(NCc4ccccc4)ncnc3c2c2c1COC(C)(C)C2 > 76.9 µM
COC(=O)c1ccc(OC)c(CSc2nnc(-c3ccc(C)cc3)o2)c1 > 76.9 µM
CCc1ccc2nc(SCC(=O)N(CC)CC)c(C#N)cc2c1 > 76.9 µM
COc1ccc(OCC(=O)Nc2ccc(C)cc2)cc1 > 76.9 µM
O=c1c2cc(N3CCOCC3)ccc2[nH]c(=S)n1Cc1ccco1 > 76.9 µM
Cc1ccc2c(C(=O)CN3CCSCC3)c(C)[nH]c2c1 > 76.9 µM
O=C(Nc1ccc2nsnc2c1)c1cccs1 > 76.9 µM
CCSc1ncc(Cl)c(C(=O)N(Cc2ccc(N(C)C)cc2)C2CCS(=O)(=O)C2)n1 (stereo not drawn) > 76.9 µM
O=C(Nc1cc(Cl)ccc1N1CCOCC1)c1cnccn1 > 76.9 µM
CSc1nc2ccccc2n1Cc1cccc(F)c1 > 76.9 µM
COc1ccc(C2/C(=C(\O)c3cc(C)ccc3C)C(=O)C(=O)N2CCN(C)C)cc1OC (stereo not drawn) > 76.9 µM
CCCOc1ccc(C(=O)N2CCN(c3ccc(NC(=O)CC)cc3Cl)CC2)cc1
O=C1NC(c2ccccc2)(C(F)(F)F)SC2=NCCCN12 (stereo not drawn) > 76.9 µM
Cc1ccc2c(c1C)NC(=O)C2(O)CC(=O)c1ccc2c(c1)OCO2 (stereo not drawn) > 76.9 µM
N=c1c(C(=O)NCc2ccc(F)cc2)cc2c(=O)n3ccccc3nc2n1CCCN1CCOCC1 > 76.9 µM
CCOC(=O)c1ccc2c(c1)nc(COc1ccccc1C#N)n2CC > 76.9 µM
OCCCNCc1cccc2ccccc12 > 76.9 µM
CCOc1cc(C(=O)NC(C)c2ccncc2)cc(OCC)c1OCC (stereo not drawn) > 76.9 µM
CCC(C)n1c(=O)c(C(=O)Nc2ccccc2S(N)(=O)=O)c(O)c2ccccc21 (stereo not drawn) > 76.9 µM
CCOc1ccc(C(C)=O)cc1N1C(=O)C2C3C=CC(C3)C2C1=O (stereo not drawn) > 76.9 µM
O=C(COC(=O)c1cccnc1)c1ccc(Cl)cc1 > 76.9 µM
O=C1C2C3C=CC(C3)C2C(=O)N1c1ncn[nH]1 (stereo not drawn) > 76.9 µM
CCN(CC)c1ccc(NC(=O)Cn2nnc(-c3cccc(OC)c3OC)n2)c(C)c1 > 76.9 µM
COC(=O)Cn1nc(-c2ccccc2)n(-c2ccccc2)c1=S > 76.9 µM
Cc1nc2sccn2c1-c1nc(C2CC2)c(C(=O)c2ccc3c(c2)NC(=O)CO3)s1 > 76.9 µM
COCCn1nnnc1SCC(=O)c1ccc(F)cc1 > 76.9 µM
COC(=O)c1ccccc1NC(=O)CN1CCN(C(=O)c2ccco2)CC1 > 76.9 µM
CCNc1nc(NCC)n2c(SCC(=O)O)nnc2n1 > 76.9 µM
CC(C)CCNC(=O)C1CCCN(S(=O)(=O)c2ccc(F)cc2)C1 (stereo not drawn) > 76.9 µM
CN1CCN(C(CNS(=O)(=O)c2ccc(Cl)cc2)c2cccnc2)CC1 (stereo not drawn) > 76.9 µM
Cc1ccc(SCc2cc(=O)[nH]c(N3CCN(Cc4ccc5c(c4)OCO5)CC3)n2)cc1 > 76.9 µM
CCn1c(SCC(=O)N2CCCc3ccccc32)nnc1-c1cccs1 > 76.9 µM
CN(c1ccc(C(=O)Nc2ccccc2C(=O)N2CCCC2)cc1)S(C)(=O)=O > 76.9 µM
COc1cc(C2NC(=O)NC(C)=C2C(=O)OC(C)(C)C)ccc1OCC(N)=O (stereo not drawn) > 76.9 µM
CC1(C(=O)NC2CCCC2)CCC(=O)N1CCC1=CCCCC1 (stereo not drawn) > 76.9 µM
CCC(CC)C(=O)Nc1cccc(-c2nc3ccccc3o2)c1 > 76.9 µM
CSc1nnc2c(n1)OC=Nc1ccccc1-2 > 76.9 µM
CC12CCC(C(=O)N3CCc4ccccc43)(CC1=O)C2(C)C (stereo not drawn) > 76.9 µM
CC(=O)NS(=O)(=O)c1ccc(NS(=O)(=O)c2ccc(F)cc2)cc1 > 76.9 µM
CC(=O)OCc1cc2cccc(C)c2[nH]c1=O > 76.9 µM
Cc1ccc(-c2ccc(=O)n(CC(=O)NCCN(C)C)n2)cc1 > 76.9 µM
COC(=O)c1ccc(CSc2nnc3ccccn23)o1 > 76.9 µM
O=C(CN1C(=O)CSC1=O)NC1CCCCC1 > 76.9 µM
CCOC(=O)c1cc2occc2n1CC(=O)NC1CCCCC1C (stereo not drawn) > 76.9 µM
c1cc(-c2nc3cc(Cc4ccc5oc(-c6ccncc6)nc5c4)ccc3o2)ccn1 > 76.9 µM
O=C(COc1ccc(OCc2ccccc2)cc1)NC1CCOC1=O (stereo not drawn) > 76.9 µM
Cc1cccc(-c2nc(CSCC(=O)N3CCN(c4ccccn4)CC3)c(C)o2)c1 > 76.9 µM
CCn1c(SC(=O)NC2CCCCC2)nnc1-c1cccs1 > 76.9 µM
O=C1CC(c2c[nH]c3ccccc23)C(=O)N1 (stereo not drawn) > 76.9 µM
Cc1oc(-c2ccc(Cl)cc2)cc1-c1nn2c(-c3ccco3)nnc2s1 > 76.9 µM
Cc1ccc(-c2ccc(SCC(=O)Nc3nonc3C)nn2)cc1 > 76.9 µM
CCC(=O)Nc1cc(C)c(NC(=O)CCc2ccccc2)cn1 > 76.9 µM
O=C(c1ccc(F)cc1)N1C2CCC1CC(O)(c1ccccc1F)C2 (stereo not drawn) > 76.9 µM
COc1ccc(S(=O)(=O)CCC(=O)O)cc1 > 76.9 µM
N#Cc1c(NC(=O)CN2CCN(C(=O)c3ccco3)CC2)sc2c1CCCCC2 > 76.9 µM
CCOC(=O)N1CCN(S(=O)(=O)c2c(C)[nH]c(=O)[nH]c2=O)CC1
CSc1snc(SCC(N)=O)c1C#N > 76.9 µM
Cc1cc(C)n2nc(C(=O)NCc3ccco3)nc2n1 > 76.9 µM
CC(OC(=O)c1cccs1)C(=O)NCc1ccco1 (stereo not drawn) > 76.9 µM
CCOC(=O)c1nnn(-c2nn3nnnc3c3ccccc23)c1C > 76.9 µM
N=C1C(c2nc3ccccc3s2)=C(O)CN1CCCO > 76.9 µM
CCOC(=O)c1c(-c2ccccc2)oc2ccc(O)c(CN3CCOCC3)c12 > 76.9 µM
Cc1cccc2sc(NC(=O)CCNS(=O)(=O)c3cccs3)nc12 > 76.9 µM
O=C1Nc2ccc(S(=O)(=O)NCc3ccco3)c3cccc1c23 > 76.9 µM
N#Cc1cc2c(nc1SCc1cccnc1)CCCC2 > 76.9 µM
CC(C)(C)C(=O)NC1CCN(S(=O)(=O)c2cccc(C(F)(F)F)c2)CC1 > 76.9 µM
Cc1cccc(NC(=O)CCc2ccc(C)o2)c1 > 76.9 µM
